# Source: PMC12820563
# The other results are listed elsewhere or left out. The list includes weakly bound sequences.
# Molecular target: T1, MBP-FoxP3dN (UniProt Q99JB6)
# T1 sequence: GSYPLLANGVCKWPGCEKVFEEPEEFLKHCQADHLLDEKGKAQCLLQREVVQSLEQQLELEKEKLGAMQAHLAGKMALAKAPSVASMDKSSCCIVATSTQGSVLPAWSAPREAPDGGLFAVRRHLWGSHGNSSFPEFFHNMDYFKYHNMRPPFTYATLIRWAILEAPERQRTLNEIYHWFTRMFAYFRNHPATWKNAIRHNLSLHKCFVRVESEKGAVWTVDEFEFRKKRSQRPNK
# Test: PD-seq (MBP pull-down with sequencing)
# Details: 20 mM Tris-HCl pH 7.5, 100 mM NaCl, 1.5 mM MgCl2, 0.4 uM protein, 0.1 uM dsDNA library, 30 min, room temperature, amylose pull-down; high values mean tight binding; double strand, one strand shown
row,Sequence,binding signal (RPM ratio (pull-down/input))
1,GATGATTGTTCTCCCAGCTGATGAATTCCAGATGTCGAGTAAACAAATTTTCCTAATCTTTCTGTTCAAGCGCCATCTAC,0.326
2,GATGATTGTTCTCCCAGCTGATGAATTTTGATCATCGAGTAAACAAATTTTCCTAATCTTTCTGTTCAAGCGCCATCTAC,0.562
3,GATGATTGTTCTCCCAGCTGATGAATTGGACGATTCGAGTAAACAAATTTTCCTAATCTTTCTGTTCAAGCGCCATCTAC,0.28
4,GATGATTGTTCTCCCAGCTGATGAATTCGTCTAGTCGAGTAAACAAATTTTCCTAATCTTTCTGTTCAAGCGCCATCTAC,0.451
5,GATGATTGTTCTCCCAGCTGATGAATTCCGCAACTCGAGTAAACAAATTTTCCTAATCTTTCTGTTCAAGCGCCATCTAC,6.11
6,GATGATTGTTCTCCCAGCTGATGAATTCAAAAATTCGAGTAAACAAATTTTCCTAATCTTTCTGTTCAAGCGCCATCTAC,0.233
7,GATGATTGTTCTCCCAGCTGATGAATTTGGTGCTTCGAGTAAACAAATTTTCCTAATCTTTCTGTTCAAGCGCCATCTAC,1.59
8,GATGATTGTTCTCCCAGCTGATGAATTTAGTAGTTCGAGTAAACAAATTTTCCTAATCTTTCTGTTCAAGCGCCATCTAC,2.33
9,GATGATTGTTCTCCCAGCTGATGAATTTGTTCCGTCGAGTAAACAAATTTTCCTAATCTTTCTGTTCAAGCGCCATCTAC,2.26
10,GATGATTGTTCTCCCAGCTGATGAATTTAGGAAATCGAGTAAACAAATTTTCCTAATCTTTCTGTTCAAGCGCCATCTAC,0.384
11,GATGATTGTTCTCCCAGCTGATGAATTGTCACACTCGAGTAAACAAATTTTCCTAATCTTTCTGTTCAAGCGCCATCTAC,0.583
12,GATGATTGTTCTCCCAGCTGATGAATTTTGCGTCTCGAGTAAACAAATTTTCCTAATCTTTCTGTTCAAGCGCCATCTAC,5.4
13,GATGATTGTTCTCCCAGCTGATGAATTTTATAAATCGAGTAAACAAATTTTCCTAATCTTTCTGTTCAAGCGCCATCTAC,0.293
14,GATGATTGTTCTCCCAGCTGATGAATTGTATCACTCGAGTAAACAAATTTTCCTAATCTTTCTGTTCAAGCGCCATCTAC,1.87
15,GATGATTGTTCTCCCAGCTGATGAATTGGGAGAGTCGAGTAAACAAATTTTCCTAATCTTTCTGTTCAAGCGCCATCTAC,0.22
16,GATGATTGTTCTCCCAGCTGATGAATTTAAGTTCTCGAGTAAACAAATTTTCCTAATCTTTCTGTTCAAGCGCCATCTAC,0.678
17,GATGATTGTTCTCCCAGCTGATGAATTACTGGACTCGAGTAAACAAATTTTCCTAATCTTTCTGTTCAAGCGCCATCTAC,0.285
18,GATGATTGTTCTCCCAGCTGATGAATTCGGAGAATCGAGTAAACAAATTTTCCTAATCTTTCTGTTCAAGCGCCATCTAC,0.185
19,GATGATTGTTCTCCCAGCTGATGAATTCTCCTTGTCGAGTAAACAAATTTTCCTAATCTTTCTGTTCAAGCGCCATCTAC,0.219
20,GATGATTGTTCTCCCAGCTGATGAATTAGCGATCTCGAGTAAACAAATTTTCCTAATCTTTCTGTTCAAGCGCCATCTAC,0.495

row,Sequence,binding signal (RPM ratio (pull-down/input))
1,GATGATTGTTCTCCCAGCTGATGAATTTGGACGTTCGAGTAAACAAATTTTCCTAATCTTTCTGTTCAAGCGCCATCTAC,0.405
2,GATGATTGTTCTCCCAGCTGATGAATTCGTTGACTCGAGTAAACAAATTTTCCTAATCTTTCTGTTCAAGCGCCATCTAC,3.19
3,GATGATTGTTCTCCCAGCTGATGAATTCAACCTGTCGAGTAAACAAATTTTCCTAATCTTTCTGTTCAAGCGCCATCTAC,0.325
4,GATGATTGTTCTCCCAGCTGATGAATTTTATTGATCGAGTAAACAAATTTTCCTAATCTTTCTGTTCAAGCGCCATCTAC,5.5
5,GATGATTGTTCTCCCAGCTGATGAATTTGCTGGTTCGAGTAAACAAATTTTCCTAATCTTTCTGTTCAAGCGCCATCTAC,4.92
6,GATGATTGTTCTCCCAGCTGATGAATTGTGGATTTCGAGTAAACAAATTTTCCTAATCTTTCTGTTCAAGCGCCATCTAC,0.826
7,GATGATTGTTCTCCCAGCTGATGAATTTGAGGGTTCGAGTAAACAAATTTTCCTAATCTTTCTGTTCAAGCGCCATCTAC,0.68
8,GATGATTGTTCTCCCAGCTGATGAATTTGGTCCCTCGAGTAAACAAATTTTCCTAATCTTTCTGTTCAAGCGCCATCTAC,0.485
9,GATGATTGTTCTCCCAGCTGATGAATTCCTGCCGTCGAGTAAACAAATTTTCCTAATCTTTCTGTTCAAGCGCCATCTAC,0.357
10,GATGATTGTTCTCCCAGCTGATGAATTATTGAATTCGAGTAAACAAATTTTCCTAATCTTTCTGTTCAAGCGCCATCTAC,0.798
11,GATGATTGTTCTCCCAGCTGATGAATTACTTTGTTCGAGTAAACAAATTTTCCTAATCTTTCTGTTCAAGCGCCATCTAC,0.95
12,GATGATTGTTCTCCCAGCTGATGAATTAGGAGGATCGAGTAAACAAATTTTCCTAATCTTTCTGTTCAAGCGCCATCTAC,0.291
13,GATGATTGTTCTCCCAGCTGATGAATTGTATCGATCGAGTAAACAAATTTTCCTAATCTTTCTGTTCAAGCGCCATCTAC,0.916
14,GATGATTGTTCTCCCAGCTGATGAATTAAAGGATTCGAGTAAACAAATTTTCCTAATCTTTCTGTTCAAGCGCCATCTAC,0.287
15,GATGATTGTTCTCCCAGCTGATGAATTAGCACCTTCGAGTAAACAAATTTTCCTAATCTTTCTGTTCAAGCGCCATCTAC,0.404
16,GATGATTGTTCTCCCAGCTGATGAATTGCCGGGATCGAGTAAACAAATTTTCCTAATCTTTCTGTTCAAGCGCCATCTAC,0.384
17,GATGATTGTTCTCCCAGCTGATGAATTTTCGAACTCGAGTAAACAAATTTTCCTAATCTTTCTGTTCAAGCGCCATCTAC,0.24
18,GATGATTGTTCTCCCAGCTGATGAATTTTGTAAATCGAGTAAACAAATTTTCCTAATCTTTCTGTTCAAGCGCCATCTAC,1.03
19,GATGATTGTTCTCCCAGCTGATGAATTACGCTAGTCGAGTAAACAAATTTTCCTAATCTTTCTGTTCAAGCGCCATCTAC,1.23
20,GATGATTGTTCTCCCAGCTGATGAATTATCAGATTCGAGTAAACAAATTTTCCTAATCTTTCTGTTCAAGCGCCATCTAC,0.293
